Screen size: about 330,000 compounds; about 4,200 (1.3%) were called active. The shares of active, inactive and inconclusive entries below differ from those in the screen. Calls follow the shape of the dose curve; as a rule, active = well fitted activation curve with a large enough effect; inconclusive = small, poorly fitted or top-dose-only effect; inactive = no such curve, though single readings can be large or run the other way. Where the call is inconclusive, the potency comes from a doubtful curve fit.
Assay: qHTS screen for small molecules that induce genotoxicity in human embryonic kidney (HEK293T) cells expressing luciferase-tagged ELG1; also: nearly all actives have a fitted effect of over 60% in size
Details: HEK293T ELG1-luciferase reporter, luminescence, 16 h; series mostly up to 46 µM
Outline: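 Step 1: seed 2,000 HEK293T ELG1-luciferase cells per well. Step 2: add compound or DMSO, incubate 16 hr at 37 °C. Step 3: ONE-Glo, 30 min at room temperature, read luminescence.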
Potency is read from the fitted curve at half-maximal effect; tags tell the direction and shape of the fitted curve.

| SMILES | Potency |
| --- | --- |
| COc1ccc(N2CCN(C(=O)c3ccc(CNS(=O)(=O)c4cccc(OC)c4)cc3)CC2)cc1 | inactive |
| COc1ccc2nc(SCC(=O)C(C)(C)C)[nH]c2c1 | active: 14.6 µM |
| O=C(Nc1nnc(C2CC2)s1)c1cccs1 | inconclusive: 20.6 µM [activator, partial curve] |
| COc1ccc(NS(=O)(=O)c2ccc3c(c2)N(C(C)=O)CCO3)cc1 | inactive |
| COC(=O)C1CCN(C(=O)/C=C/c2ccc(OC)cc2)CC1 | active: 2.31 µM |
| Cc1ccccc1NCc1nc2ccccc2n1C | active: 4.11 µM |
| Oc1[nH]c2ccccc2c1N=Nc1ccccc1 | inconclusive: 20.6 µM [activator, partial curve, poor fit] |
| CCN(CC)CCCNC(=O)c1ccc2c3n(nc2c1)-c1ccc(Cl)cc1CO3 | inconclusive: 16.4 µM [activator, partial curve, poor fit] |
| Cc1ccc(SCC(=O)Nc2ccc(C(=O)Nc3ccc(O)cc3)cc2)cc1 | inconclusive: 29.1 µM [activator, single point] |
| COc1ccc(-n2ncc3c(NCc4cccnc4)ncnc32)cc1 | inconclusive: 9.2 µM [activator, partial curve] |
| O=S(=O)(NNc1cccc(Cl)n1)c1ccc(Cl)cc1 | inactive |
| CCCCSc1nnc(-c2c[nH]c3ccccc23)n1C | inconclusive: 16.4 µM [activator, partial curve] |
| C/C(=N\NC(=O)c1ccoc1C)c1ccc(Br)s1 | inconclusive: 11.6 µM [activator, partial curve] |
| O=C(c1cnn(-c2cccc(F)c2)c1)c1ccccc1O | inconclusive: 8.2 µM [activator, partial curve] |
| Cc1cccc(CC(=O)NCC2CCCCC2)c1 | inconclusive: 18.3 µM [activator, partial curve, poor fit] |
| CCOc1ccc(NC(=O)CS(=O)CC(=O)NC2CCCc3ccccc32)cc1 (configuration not stated) | inconclusive: 32.6 µM [activator, partial curve, poor fit] |
| CC(C)c1ccc(NC(=O)CCN2C(=O)[C@@H]3Cc4ccccc4CN3C2=O)cc1 | inactive |
| N#C/C(=N\Nc1ccc(Br)cc1)C(=N)N1CCOCC1 | inconclusive: 14.6 µM [activator, partial curve] |
| Cc1cccc(C)c1NC(=S)N(Cc1ccccc1)Cc1cccs1 | inactive |
| O=C(/C=C\c1ccccc1)Nc1nccs1 | inconclusive: 7.31 µM [activator, partial curve] |
| O=C(Nc1ccccc1)C(=O)Nc1ccc2c(c1)N(C(=O)C1CC1)CCC2 | active: 1.64 µM |
| Cc1cccc(/C=N/NC(=O)Cc2ccc(Cl)cc2)c1O | inconclusive: 29.1 µM [activator, single point] |
| Cc1ccc(NC(=O)NCCCN2CCCC2=O)cc1 | inconclusive: 29.1 µM [activator, partial curve, poor fit] |
| O=C(Nc1ccc2c(c1)C(=O)NC2=O)c1ccc2ncsc2c1 | inconclusive: 14.6 µM [activator, partial curve, poor fit] |

| SMILES | Potency |
| --- | --- |
| NS(=O)(=O)c1ccc(CCNC(=O)COC(=O)Cc2c(F)cccc2Cl)cc1 | inactive |
| COc1ccc(NC(=O)c2cccc(-n3c(C)ccc3C)c2)c(OC)c1 | inconclusive: 20.6 µM [activator, single point] |
| Cc1ccc(Nc2nc(CSc3nnc(-c4ccncc4)n3C)cs2)cc1 | inconclusive: 3.26 µM [activator, partial curve] |
| CC(=O)Nc1ccc(NC(=O)c2ccc(-c3ccccc3Cl)o2)cc1 | inconclusive: 18.3 µM [activator, partial curve, poor fit] |
| O=C(Nc1ccc(Nc2ccccc2)cc1)C1CC1 | inconclusive: 29.1 µM [activator, single point] |
| O=C(CN1C(=O)C2CC=CCC2C1=O)Nc1nc(-c2ccc(F)cc2)cs1 (configuration not stated) | inactive |
| CCOc1ccc(N2C(=O)CC(SCCN)C2=O)cc1 (configuration not stated) | inconclusive: 10.3 µM [activator, partial curve] |
| NC(=O)c1c(NC(=O)c2cccnc2)sc2c1CCCCC2 | inconclusive: 7.3 µM [activator, partial curve] |
| COc1ccc(Nc2nnc(-c3ccc(O)cc3)c3ccccc23)cc1 | inconclusive: 20.6 µM [activator, partial curve, poor fit] |
| O=C(O)c1cccc(N/N=C(\N=Nc2ccccc2)c2ccccc2)c1 | inconclusive: 14.6 µM [activator, partial curve, poor fit] |
| CC(C)C[C@H]1C(=O)N2CCC[C@H]2[C@]2(O)O[C@](NC(=O)[C@@H]3C=C4c5cccc6[nH]c(Br)c(c56)CC4N(C)C3)(C(C)C)C(=O)N12 (some centres not stated) | inactive |
| COc1ccc2oc(-c3ccc(NC(=O)c4ccc(N5CCOCC5)c([N+](=O)[O-])c4)cc3)nc2c1 | inconclusive: 6.51 µM [activator, partial curve, poor fit] |
| Cc1cc(C(=O)COC(=O)c2ccccc2NCCO)c(C)n1CC1CCCO1 (configuration not stated) | inconclusive: 0.58 µM [activator, single point] |
| Cc1ccc2oc(Nc3nc(C)c(C)c(C)n3)nc2c1 | inconclusive: 2.91 µM [activator, full curve] |
| NS(=O)(=O)c1ccc(CCNC(=O)CCCC2=NS(=O)(=O)c3ccccc3N2)cc1 | inactive |
| CCOC(=O)c1cnc(SCc2ccc(C(C)(C)C)cc2)nc1N | inactive |
| CCCc1ccc2oc(C(=O)N(C)Cc3nccs3)c(C)c2c1 | active: 23.1 µM |
| Cc1ccc(S(=O)(=O)Nn2c(C)ccc2C)cc1 | inactive |
| Cc1cccc(-c2nc3c(s2)CCc2onc(-c4ccc(Br)cc4)c2-3)c1 | inactive |
| COc1ccc2oc(=O)c(C(=O)Nc3ccccc3O)cc2c1 | active: 0.651 µM |
| Cc1cccc(NC(=S)NCc2ccc3c(c2)OCO3)c1 | inactive |
| CC(C)n1cnc2cc(NCc3nc4ccccc4n3C)ccc21 | active: 14.6 µM |
| CC(=O)c1c(C)[nH]c(C(=O)Nc2cc(C)cc(C)c2)c1C | inconclusive: 16.4 µM [activator, partial curve, poor fit] |
